{
  "source": "PubChem BioAssay AID2546",
  "about": "(National Center for Advancing Translational Sciences (NCATS), 2010)",
  "note": "Hit rate of the full screen: of about 310,000 compounds, about 11,000 (3.5%) were called active. This list was built around the results that the source calls inconclusive (neither active nor inactive); the mix of calls is not that of the screen. The call rests on the fitted dose curve; in most records, active means well fitted inhibition curve with a large enough effect; inconclusive means small, poorly fitted or top-dose-only effect, or effect the other way; inactive means flat fitted curve, though single readings scatter. Potencies of inconclusive entries are left out as doubtful fits. On the % scale 0 is the no-effect control and ±100 the full control effect; potency means the concentration at half of the fitted maximal effect; tags describe the fitted curve by direction and shape.",
  "data": [
    {"assay": "VP16 counterscreen qHTS for inhibitors of ROR gamma transcriptional activity;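 further: Gal4-VP16 expression switched on by copper sulfate through the metallothionein promoter; nearly all actives have a fitted effect of over 50% in size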", "settings": "Drosophila S2 Gal4-VP16 UAS-luciferase, luminescence, 20 h; activity, negative = inhibition: at 53.6 µM (top of the series)", "values": [
      {"smiles": "Cc1ccc(NC(=S)N2CCC(c3nc4ccccc4s3)CC2)cc1C", "Potency": "active: 11.2 µM"},
      {"smiles": "Clc1ccc(OCc2nnc(SCc3nc4ccccc4[nH]3)n2Cc2ccco2)cc1", "Potency": "inconclusive [inhibitor, partial curve, poor fit]"},
      {"smiles": "O=c1c2c(-c3cccs3)csc2ncn1-c1ccccc1", "Potency": "inconclusive [activator, single point]"},
      {"smiles": "C=CC[N+]1([C@H]2C[C@H]3[C@@H]4CC[C@H]5C[C@H](O)[C@@H](N6CCOCC6)C[C@]5(C)[C@H]4CC[C@]3(C)[C@H]2OC(C)=O)CCCC1", "activity, negative = inhibition": "inactive: -1.31%"},
      {"smiles": "O=C(Cc1ccc(Br)cc1)Nc1ncc([N+](=O)[O-])s1", "Potency": "inconclusive [inhibitor, single point]"},
      {"smiles": "CC1(C)CC(=O)C2=C(C1)NC(Nc1nc3ccccc3o1)=NC21CCCC1", "activity, negative = inhibition": "inactive: -7.54%"},
      {"smiles": "Cc1ccc(C(C[N+](=O)[O-])c2c(N)n(C)c(=O)n(C)c2=O)cc1", "note": "(stereo not drawn)", "Potency": "inconclusive [inhibitor, single point]"},
      {"smiles": "CCN1CCN(C(=O)c2cc3cc4cc(OC)ccc4nc3s2)CC1", "Potency": "inconclusive [inhibitor, single point]"},
      {"smiles": "CCCOc1ccc(C(=O)c2nc3c(n2O)CCCCC3)cc1", "Potency": "active: 20 µM"},
      {"smiles": "O=C(OCCN=C1NS(=O)(=O)c2ccccc21)c1ccccc1F", "activity, negative = inhibition": "inactive: -6.52%"},
      {"smiles": "CCCN1CNC(=S)N(Cc2ccccc2)C1", "Potency": "active: 7.08 µM"},
      {"smiles": "CCOC(=O)C1CCCN(Cc2nc(N)nc(Nc3ccc(Cl)cc3)n2)C1", "note": "(stereo not drawn)", "Potency": "inconclusive [inhibitor, single point]"},
      {"smiles": "O=C(NC(=S)NN1CCCCC1c1cccnc1)c1ccc(Br)cc1", "note": "(stereo not drawn)", "Potency": "active: 1.41 µM"},
      {"smiles": "CCn1c(-c2ccc(F)cc2)n[nH]c1=S", "Potency": "active: 2 µM"},
      {"smiles": "Cc1cccc(-n2nnnc2SCC(=O)c2cc(C)n(Cc3ccco3)c2C)c1", "Potency": "inconclusive [activator, partial curve]"},
      {"smiles": "O=C(Nc1nnc(C2CC2)s1)C1COc2ccccc2O1", "note": "(stereo not drawn)", "Potency": "inconclusive [inhibitor, single point]"},
      {"smiles": "C=CCC1C=CC(OC(=O)OCC)C(COC(=O)OCC)O1", "note": "(stereo not drawn)", "activity, negative = inhibition": "inactive: -4.05% [at 10 µM]"},
      {"smiles": "COc1ccc(C(=O)O/N=C(\\N)Cc2ccc(Cl)cc2Cl)cc1OC", "Potency": "active: 7.08 µM"},
      {"smiles": "CC(=O)Nc1ccc(S(=O)(=O)N2CCN(CCCOc3ccccc3Cl)CC2)cc1", "Potency": "inconclusive [inhibitor, single point]"},
      {"smiles": "CN(CC(=O)Nc1nc2ccccc2s1)S(=O)(=O)c1ccc(Br)cc1", "Potency": "inconclusive [inhibitor, single point]"},
      {"smiles": "O=C(CCN1CCOCC1)NNC(=S)NC(=O)c1ccc(Br)cc1", "Potency": "inconclusive [inhibitor, single point]"},
      {"smiles": "COc1ccc(-n2c(Cc3cccn3C)nnc2SCC(=O)Nc2ccc(F)cc2)cc1", "Potency": "inconclusive [inhibitor, single point]"},
      {"smiles": "CCCNc1nc2c(c(=O)n(C)c(=O)n2C)n1Cc1ccc(F)cc1", "Potency": "inconclusive [inhibitor, single point]"},
      {"smiles": "Cn1c(SCC(=O)Nc2ccccc2Br)nnc1-c1cnccn1", "activity, negative = inhibition": "inactive: -2.52%"},
      {"smiles": "CCCCc1ccc(NC(=S)N2CCCC(C)C2)cc1", "note": "(stereo not drawn)", "Potency": "inconclusive [inhibitor, single point]"},
      {"smiles": "Cc1[nH]c2ccccc2c1/C=N/Nc1ccccn1", "Potency": "inconclusive [activator, partial curve]"},
      {"smiles": "C=CCNC(=S)N/N=C/c1ccc(C)cc1C", "Potency": "inconclusive [inhibitor, full curve, poor fit]"},
      {"smiles": "CCN(c1ccccc1)c1cc2ccccc2c(=O)[nH]1", "activity, negative = inhibition": "inactive: -7.47%"},
      {"smiles": "CCn1ccnc1CN(C)C(=O)c1cc(COc2ccc(OC)c3ccccc23)on1", "Potency": "active: 28.2 µM"},
      {"smiles": "c1ccn2cc(-c3ccc4c(c3)OCCO4)nc2c1", "Potency": "inconclusive [inhibitor, partial curve, poor fit]"},
      {"smiles": "c1ccc(-c2nc(-c3ccncc3)n[nH]2)nc1", "Potency": "active: 12.6 µM"},
      {"smiles": "CC(C)(C)NC(=O)CSc1nc2ccc(NC(=O)CSc3nnnn3Cc3ccccc3)cc2s1", "Potency": "active: 11.2 µM"},
      {"smiles": "COc1cccc(Cn2c(=O)c(-c3cc(F)cc(F)c3)nc3cnc(N4CCNCC4)nc32)c1", "Potency": "inconclusive [inhibitor, single point]"},
      {"smiles": "COC(=O)c1sc(NC(=O)c2oc3ccccc3c2C)nc1C", "Potency": "inconclusive [inhibitor, partial curve]"},
      {"smiles": "CCCCCCOc1ccc(N2C(=O)CC(N3CCN(C(=O)c4ccco4)CC3)C2=O)cc1", "note": "(stereo not drawn)", "Potency": "inconclusive [inhibitor, single point]"},
      {"smiles": "Cc1ccccc1-c1cncnc1N1CCNCC1", "activity, negative = inhibition": "inactive: 12.2%"},
      {"smiles": "Cc1cc(NC(=O)c2ccc(NC(=O)c3cccs3)cc2)no1", "Potency": "inconclusive [activator, full curve, poor fit]"},
      {"smiles": "Cc1cc(C(=O)N/N=C2\\CCCC(=O)C2)c(C)n1-c1ccccc1", "Potency": "inconclusive [activator, single point]"},
      {"smiles": "Cc1cc(Nc2ncc(Cl)cc2Cl)n(-c2ccccc2C)n1", "Potency": "inconclusive [inhibitor, single point]"},
      {"smiles": "O=C(Nc1ccccc1CC[N+](=O)[O-])N1CCN(c2ccccc2)CC1", "Potency": "inconclusive [activator, partial curve, poor fit]"},
      {"smiles": "COc1cc(/C=C2\\SC(=S)N(N3CCOCC3)C2=O)cc(OC)c1OC", "Potency": "inconclusive [inhibitor, full curve, poor fit]"},
      {"smiles": "Cn1c(N=NC(=O)c2ccccc2)c(O)c2ccccc21", "Potency": "inconclusive [inhibitor, partial curve]"},
      {"smiles": "Cc1[nH]c2ccccc2c1C(C[N+](=O)[O-])c1ccco1", "note": "(stereo not drawn)", "activity, negative = inhibition": "inactive: -7.78%"},
      {"smiles": "CCN(CC)S(=O)(=O)c1ccc2c(c1)nc(CCC(=O)Nc1cccc(C(F)(F)F)c1)n2CC", "activity, negative = inhibition": "inactive: -8.88%"},
      {"smiles": "Cc1cc(C)nc(-n2nc(C)cc2NC(=O)c2ccc(F)cc2F)n1", "Potency": "active: 3.16 µM"},
      {"smiles": "O=C(Oc1c(-c2ccco2)oc2ccccc2c1=O)c1cccnc1", "Potency": "inconclusive [inhibitor, single point]"},
      {"smiles": "COCc1cc(C)nc(OCC(=O)N/N=C/c2ccc(OC)c(OC)c2)c1C#N", "activity, negative = inhibition": "inactive: -16.1%"},
      {"smiles": "NCCCCCc1nnc(SCc2ccc(Cl)c(Cl)c2)o1", "Potency": "active: 10 µM"},
      {"smiles": "Cc1ccc(NC(=S)Nc2cccc3cnccc23)cc1C", "Potency": "active: 3.16 µM"},
      {"smiles": "Fc1cccc(NC(=S)NCc2ccc(Cl)cc2)c1", "Potency": "active: 17.8 µM"},
      {"smiles": "CCN(CC)S(=O)(=O)c1ccc(N/N=C/c2cc(OC)ccc2O)nc1", "Potency": "active: 11.2 µM"},
      {"smiles": "COc1ccccc1CNC(=O)CNC(=O)[C@@H]1Cc2ccccc2CN1", "Potency": "inconclusive [inhibitor, single point]"},
      {"smiles": "CCOC(=O)c1ccc(NC(=O)c2ccc3c(c2)C(=O)N(CC2CCCO2)C3=O)cc1", "note": "(stereo not drawn)", "Potency": "inconclusive [inhibitor, single point]"},
      {"smiles": "Cc1cccc(NC(=O)C2CCN(S(=O)(=O)c3c(C)noc3/C=C/c3ccco3)CC2)n1", "activity, negative = inhibition": "inactive: -20.3%"},
      {"smiles": "Cc1[nH]n(-c2ncc(-c3ccccc3)s2)c(=O)c1C(c1ccc(Cl)cc1)C(C#N)C#N", "note": "(stereo not drawn)", "Potency": "inconclusive [inhibitor, single point]"},
      {"smiles": "C[C@H](NC(=O)c1nc[nH]c1C(=O)N[C@@H](Cc1ccccc1)C(=O)OC(C)(C)C)C(=O)OCc1ccccc1", "Potency": "inconclusive [inhibitor, single point]"},
      {"smiles": "O=C(O)c1ccc2c(c1)CC(c1ccccc1)OC2=O", "note": "(stereo not drawn)", "Potency": "inconclusive [inhibitor, single point]"},
      {"smiles": "Cc1[nH]n(-c2ccccc2)c(=S)c1C=Nc1cccc([N+](=O)[O-])c1", "Potency": "active: 7.08 µM"},
      {"smiles": "COc1ccc(C(CNC(=O)Cc2ccccc2Cl)N2CCCCC2)cc1", "note": "(stereo not drawn)", "activity, negative = inhibition": "inactive: -3.37%"},
      {"smiles": "COc1cccc(-n2cc(-c3ccc(F)cc3)[nH]c2=S)c1", "Potency": "inconclusive [inhibitor, partial curve]"},
      {"smiles": "N/C(=N\\S(=O)(=O)c1cccs1)c1ccccc1", "activity, negative = inhibition": "inactive: 5.21%"},
      {"smiles": "O=c1cc(O)sc2ccccc12", "activity, negative = inhibition": "inactive: -1.72%"},
      {"smiles": "CS(=O)(=O)N1N=C(c2cccs2)CC1c1ccccc1", "note": "(stereo not drawn)", "activity, negative = inhibition": "inactive: -10.9%"},
      {"smiles": "CCS(=O)(=O)N1CCC(c2nc(-c3ccc(C(F)(F)F)cc3)no2)CC1", "Potency": "inconclusive [inhibitor, single point]"},
      {"smiles": "CC1CCN(S(=O)(=O)c2ccc3c(c2)C(=NO)c2cc(S(=O)(=O)N4CCC(C)CC4)ccc2-3)CC1", "Potency": "active: 0.794 µM"},
      {"smiles": "Cc1ccnc(NC(=O)C2CC(=O)N(c3ccc4c(c3)OCCO4)C2)c1", "note": "(stereo not drawn)", "Potency": "inconclusive [inhibitor, single point]"},
      {"smiles": "CC(C)C[C@H](NC(=O)c1nc[nH]c1C(=O)NCCCCCNC(=O)OC(C)(C)C)C(=O)OC(C)(C)C", "Potency": "active: 7.08 µM"},
      {"smiles": "Nc1nc(N)c2nc(-c3ccccc3)c(N)nc2n1", "Potency": "inconclusive [inhibitor, partial curve]"},
      {"smiles": "COc1cccc(O)c1O", "Potency": "inconclusive [inhibitor, partial curve]"},
      {"smiles": "COc1ccccc1CNc1nc(-c2ccc(N(C)C)cc2)nc2ccccc12", "Potency": "inconclusive [inhibitor, full curve]"},
      {"smiles": "COC(=O)c1ccc(C2C(Oc3ccccc3)C(=O)N2CCc2ccc(OC)c(OC)c2)cc1", "note": "(stereo not drawn)", "Potency": "inconclusive [inhibitor, single point]"},
      {"smiles": "CCC(Sc1ccc(Cl)cc1)C(=O)Nc1nnc(-c2cccc([N+](=O)[O-])c2)s1", "note": "(stereo not drawn)", "Potency": "inconclusive [inhibitor, single point]"},
      {"smiles": "C=CCn1c(NS(=O)(=O)c2ccccc2)c(S(=O)(=O)c2ccc(C)cc2)c2nc3ccccc3nc21", "Potency": "active: 25.1 µM"}
    ]}
  ]
}
